From patent US11618753B2 (priority 2018, dated 2023)

System: MLKL phosphorylation, HT29-L23 human colorectal adenocarcinoma cells
Experiment: cells
Conditions: read-out: pMLKL HCS Cell Assay (IC50, uM)

| Compound | IC50 [µM] |
| --- | --- |
| COc1ncc(-c2cc(C(F)(F)F)c3c(N)ncnn23)cc1C(=O)NC1CN(C(C)c2nc(Cl)cs2)C[C@@H]1F (stereo partly drawn) [Example 1399, 5-[4-amino-5-(trifluoromethyl)-pyrrolo[2,1-f][1,2,4]triazin-7-yl]-N-[(3R,4S)-1-[1-(4-chloro-1,3-thiazol-2-yl)ethyl]-4-fluoropyrrolidin-3-yl]-2-methoxypyridine-3-carbox-amide] | 0.0031 |
| Nc1ncnn2c(-c3ccc(F)c(C(=O)NCC4CCCOC4c4ccccc4)c3)cc(C(F)(F)F)c12 (stereo not drawn) [Example 250, 5-[4-amino-5-(trifluoromethyl)pyrrolo[2,1-f][1,2,4]triazin-7-yl]-2-fluoro-N-[(2-phenyloxan-3-yl)methyl]benzamide] | 0.072 |
| COc1ncc(-c2cc(C(F)(F)F)c3c(N)ncnn23)cc1C(=O)NC1CN(CCC2CC2(F)F)CC1F (racemic) [Example 188, 5-[4-amino-5-(trifluoromethyl)pyrrolo[2,1-f][1,2,4]triazin-7-yl]-N-{1-[2-(2,2-difluorocyclopropyl)ethyl]-4-fluoropyrrolidin-3-yl}-2-methoxypyridine-3-carboxamide] | 0.025 |
| COC(=O)NCc1cc(-c2cnc(OC)c(C(=O)N[C@@H]3CN(C(=O)C4CC(F)(F)C4)C[C@@H]3F)c2)n2ncnc(N)c12 [Example 493, methyl N-{[4-amino-7-(5-{[(3R,4S)-1-(3,3-difluorocyclobutanecarbonyl)-4-fluoropyrrolidin-3-yl]carbamoyl]-6-methoxypyridin-3-yl)pyrrolo[2,1-f][1,2,4]triazin-5-yl]methyl}carbamate] | 0.106 |
| COc1ncc(-c2cc(CN3CCC(F)(F)CC3)c3c(N)ncnn23)cc1C(=O)N[C@@H]1CN(C(=O)C2CC2(F)F)C[C@@H]1F (stereo partly drawn) [Example 1621, 5-{4-amino-5-[(4,4-difluoropiperidin-1-yl)methyl]pyrrolo[2,1-f][1,2,4]triazin-7-yl}-N-[(3R,4S)-1-(2,2-difluorocyclopropanecarbonyl)-4-fluoropyrrolidin-3-yl]-2-methoxypyridine-3-carboxamide] | 0.00067 |
| COc1ncc(-c2cc(C(F)(F)F)c3c(N)ncnn23)cc1C(=O)N[C@@H]1CN(C(=O)[C@@](C)(OC)C(F)(F)F)C[C@@H]1F [Example 1230, 5-[4-amino-5-(trifluoromethyl)pyrrolo[2,1-f][1,2,4]triazin-7-yl]-N-[(3R,4S)-4-fluoro-1-[(2R)-3,3,3-trifluoro-2-methoxy-2-methylpropanoyl]pyrrolidin-3-yl]-2-methoxypyridine-3-carboxamide] | 0.01 |
| Cc1ccc(-c2cc(C(F)(F)F)c3c(N)ncnn23)c(F)c1C(=O)N[C@@H]1CN(C(=O)[C@@](C)(O)C(F)(F)F)C[C@@H]1F [Example 758, 3-[4-amino-5-(trifluoromethyl)pyrrolo[2,1-f][1,2,4]triazin-7-yl]-2-fluoro-N-[(3R,4S)-4-fluoro-1-[(2R)-3,3,3-trifluoro-2-hydroxy-2-methylpropanoyl]pyrrolidin-3-yl]-6-methylbenzamide] | 0.0034 |
| Nc1ncnn2c(-c3cccc(C(=O)N[C@@H]4CN(C(=O)[C@@H](O)C(F)(F)F)C[C@@H]4F)c3)cc(C(F)(F)F)c12 [Example 85, 3-[4-amino-5-(trifluoromethyl)pyrrolo[2,1-f][1,2,4]triazin-7-yl]-N-[(3R,4S)-4-fluoro-1-[(2R)-3,3,3-trifluoro-2-hydroxypropanoyl]pyrrolidin-3-yl]benzamide] | 0.363 |
| COc1ncc(-c2cc(Cl)c3c(N)ncnn23)cc1C(=O)Nc1cnn(CC(C)(C)C)c1 [Example 47, 5-(4-amino-5-chloropyrrolo[2,1-f][1,2,4]triazin-7-yl)-2-methoxy-N-(1-neopentyl-1H-pyrazol-4-yl)nicotinamide] | 0.16 |
| Nc1ncnn2c(-c3cccc(C(=O)N[C@H]4CCCN(Cc5ccccc5)C4)c3)cc(C(F)(F)F)c12 [Example 80, 3-[4-amino-5-(trifluoromethyl)pyrrolo[2,1-f][1,2,4]triazin-7-yl]-N-[(3S)-1-benzylpiperidin-3-yl]benzamide] | 0.261 |
| COc1ncc(-c2cc(CN3CCC(C(F)(F)F)CC3)c3c(N)ncnn23)cc1C(=O)N[C@@H]1CN(C(=O)CC(O)(C(F)(F)F)C(F)(F)F)C[C@@H]1F [Example 1631, 5-(4-amino-5-{[4-(trifluoromethyl)piperidin-1-yl]methyl}pyrrolo[2,1-f][1,2,4]triazin-7-yl)-N-[(3R,4S)-4-fluoro-1-[4,4,4-trifluoro-3-hydroxy-3-(trifluoromethyl)butanoyl]pyrrolidin-3-yl]-2-methoxypyridine-3-carboxamide] | 0.0083 |
| COc1cc(F)c(-c2cc(CN3CCC(F)(F)CC3)c3c(N)ncnn23)cc1C(=O)N[C@@H]1CN(C(=O)[C@@](C)(O)C(F)(F)F)C[C@@H]1F [Example 1570, 5-(4-amino-5-((4,4-difluoropiperidin-1-yl)methyl)pyrrolo[2,1-f][1,2,4]triazin-7-yl)-4-fluoro-N-((3R,4S)-4-fluoro-1-((R)-3,3,3-trifluoro-2-hydroxy-2-methylpropanoyl)pyrrolidin-3-yl)-2-methoxybenzamide] | 0.002 |
| Nc1ncnn2c(-c3cc(C(=O)N[C@@H]4CN(C(=O)CC(O)(C(F)(F)F)C(F)(F)F)C[C@@H]4F)c(Cl)cc3F)cc(C(F)(F)F)c12 [Example 885, 5-[4-amino-5-(trifluoromethyl)pyrrolo[2,1-f][1,2,4]triazin-7-yl]-2-chloro-4-fluoro-N-[(3R,4S)-4-fluoro-1-[4,4,4-trifluoro-3-hydroxy-3-(trifluoromethyl)butanoyl]pyrrolidin-3-yl]benzamide] | 0.005 |
| COc1ncc(-c2cc(OC(F)F)c3c(N)ncnn23)cc1C(=O)N[C@@H]1CN(C(=O)[C@@](C)(O)C(F)(F)F)C[C@@H]1F [Example 1606, 5-[4-amino-5-(difluoromethoxy)pyrrolo[2,1-f][1,2,4]triazin-7-yl]-N-[(3R,4S)-4-fluoro-1-[(2R)-3,3,3-trifluoro-2-hydroxy-2-methylpropanoyl]pyrrolidin-3-yl]-2-methoxypyridine-3-carboxamide] | 0.002 |
| CCOc1ccc(-c2cc(C(F)(F)F)c3c(N)ncnn23)cc1C(=O)N[C@@H]1CN(C(=O)C2CC(F)(F)C2)C[C@@H]1F [Example 1103, 5-[4-amino-5-(trifluoromethyl)pyrrolo[2,1-f][1,2,4]triazin-7-yl]-N-[(3R,4S)-1-(3,3-difluorocyclobutanecarbonyl)-4-fluoropyrrolidin-3-yl]-2-ethoxybenzamide] | 0.022 |
| Cc1csc(C(=O)N2C[C@H](F)[C@H](NC(=O)c3cc(-c4cc(C(F)(F)F)c5c(N)ncnn45)c(F)cc3C)C2)n1 [Example 813, 5-[4-amino-5-(trifluoromethyl)pyrrolo[2,1-f][1,2,4]triazin-7-yl]-4-fluoro-N-[(3R,4S)-4-fluoro-1-(4-methyl-1,3-thiazole-2-carbonyl)pyrrolidin-3-yl]-2-methylbenzamide] | 0.042 |
| Nc1ncnn2c(-c3ccc(F)c(C(=O)N[C@@H]4CN(C(=O)CC(O)(C(F)(F)F)C(F)(F)F)C[C@@H]4F)c3F)cc(C(F)(F)F)c12 [Example 720, 3-[4-amino-5-(trifluoromethyl)pyrrolo[2,1-f][1,2,4]triazin-7-yl]-2,6-difluoro-N-[(3R,4S)-4-fluoro-1-[4,4,4-trifluoro-3-hydroxy-3-(trifluoromethyl)butanoyl]pyrrolidin-3-yl]benzamide] | 0.01 |
| CCc1ccc(-c2cc(C(F)(F)F)c3c(N)ncnn23)cc1C(=O)N[C@@H]1CN(C(=O)C2CCC(F)(F)C2)C[C@@H]1F (stereo partly drawn) [Example 974, 5-[4-amino-5-(trifluoromethyl)pyrrolo[2,1-f][1,2,4]triazin-7-yl]-N-[(3R,4S)-1-(3,3-difluorocyclopentanecarbonyl)-4-fluoropyrrolidin-3-yl]-2-ethylbenzamide] | 0.0074 |
| COc1ncc(-c2cc(CN3CCN(C)CC3)c3c(N)ncnn23)cc1C(=O)N[C@@H]1CN(C(=O)C2CC(F)(F)C2)C[C@@H]1F [Example 501, 5-{4-amino-5-[(4-methylpiperazin-1-yl)methyl]pyrrolo[2,1-f][1,2,4]triazin-7-yl}-N-[(3R,4S)-1-(3,3-difluorocyclobutanecarbonyl)-4-fluoropyrrolidin-3-yl]-2-methoxypyridine-3-carboxamide] | 0.129 |
| Nc1ncnn2c(-c3cnc(F)c(C(=O)Nc4cnn(Cc5ccccc5)c4)c3)cc(C(F)(F)F)c12 [Example 270, 5-[4-amino-5-(trifluoromethyl)pyrrolo[2,1-f][1,2,4]triazin-7-yl]-N-(1-benzyl-1H-pyrazol-4-yl)-2-fluoropyridine-3-carboxamide] | 0.0011 |
| Nc1ncnn2c(-c3ccc(Cl)c(C(=O)N[C@@H]4CN(C(=O)c5ccccc5F)C[C@@H]4F)c3)cc(CN3CCC(C(F)(F)F)CC3)c12 [Example 1158, 5-(4-amino-5-{[4-(trifluoromethyl)piperidin-1-yl]methyl}pyrrolo[2,1-f][1,2,4]triazin-7-yl)-2-chloro-N-[(3R,4S)-4-fluoro-1-(2-fluorobenzoyl)pyrrolidin-3-yl]benzamide] | 0.0023 |
| Nc1ncnn2c(C3=C[C@@H](C(=O)NCc4cc(OC(F)(F)F)ccc4F)NC3)cc(C(F)(F)F)c12 [Example 39, (25)-4-{4-aminopyrrolo[2,1-f][1,2,4]triazin-7-yl}-N-{[2-fluoro-5-(trifluoromethoxy)phenyl]methyl}-2,5-dihydro-1H-pyrrole-2-carboxamide] | 0.327 |
| COc1ncc(-c2cc(C(F)(F)F)c3c(N)ncnn23)cc1C(=O)N[C@@H]1CN(S(=O)(=O)Cc2ccccc2C(F)(F)F)C[C@@H]1F [Example 1496, 5-[4-amino-5-(trifluoromethyl)pyrrolo[2,1-f][1,2,4]triazin-7-yl]-N-[(3R,4S)-4-fluoro-1-{[2-(trifluoromethyl)phenyl]methanesulfonyl}pyrrolidin-3-yl]-2-methoxypyridine-3-carboxamide] | 0.085 |
| Nc1ncnn2c(-c3cc(F)cc(C(=O)N[C@@H]4CN(C(=O)C5CCC5)C[C@@H]4F)c3)cc(C(F)(F)F)c12 [Example 605, 3-[4-amino-5-(trifluoromethyl)pyrrolo[2,1-f][1,2,4]triazin-7-yl]-N-[(3R,4S)-1-cyclobutanecarbonyl-4-fluoropyrrolidin-3-yl]-5-fluorobenzamide] | 0.0088 |
